# From the supplement of paper PMC3334620
# In all, about 33,000 sequences were measured (“E-score (-0.5 to 0.5)”: median about -0.053, highest 2% from about 0.37 on). The list shows a part of the results.
# Molecular target: Hap1 (UniProt P0CE41)
# Experiment: PBM E-score (8-mer binding enrichment) (E-score (-0.5 to 0.5)); higher = stronger / more preferred TF binding; most listed sequences are background and not binding sites
# Conditions: protein concentration: 200 nM; construct: GST-DNA-binding domain
# Experimental: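 Universal 'all 10-mer' protein binding microarrays (Agilent AMADID 015681) probed with GST-tagged S. cerevisiae TFs (full-length or DBD) made by in vitro transcription/translation (PURExpress), about 100-200 nM. Bound TF was detected with fluorescent anti-GST. Each ungapped 8-mer (which stands for itself and its reverse complement) is scored by the PBM enrichment score (E-score), a modified Wilcoxon-Mann-Whitney statistic from -0.5 to +0.5, computed with the Universal PBM Analysis Suite. Scale: above 0.35 generally sequence-specific binding.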
# UniProt P0CE41, sequence (P0CE41 whole entry): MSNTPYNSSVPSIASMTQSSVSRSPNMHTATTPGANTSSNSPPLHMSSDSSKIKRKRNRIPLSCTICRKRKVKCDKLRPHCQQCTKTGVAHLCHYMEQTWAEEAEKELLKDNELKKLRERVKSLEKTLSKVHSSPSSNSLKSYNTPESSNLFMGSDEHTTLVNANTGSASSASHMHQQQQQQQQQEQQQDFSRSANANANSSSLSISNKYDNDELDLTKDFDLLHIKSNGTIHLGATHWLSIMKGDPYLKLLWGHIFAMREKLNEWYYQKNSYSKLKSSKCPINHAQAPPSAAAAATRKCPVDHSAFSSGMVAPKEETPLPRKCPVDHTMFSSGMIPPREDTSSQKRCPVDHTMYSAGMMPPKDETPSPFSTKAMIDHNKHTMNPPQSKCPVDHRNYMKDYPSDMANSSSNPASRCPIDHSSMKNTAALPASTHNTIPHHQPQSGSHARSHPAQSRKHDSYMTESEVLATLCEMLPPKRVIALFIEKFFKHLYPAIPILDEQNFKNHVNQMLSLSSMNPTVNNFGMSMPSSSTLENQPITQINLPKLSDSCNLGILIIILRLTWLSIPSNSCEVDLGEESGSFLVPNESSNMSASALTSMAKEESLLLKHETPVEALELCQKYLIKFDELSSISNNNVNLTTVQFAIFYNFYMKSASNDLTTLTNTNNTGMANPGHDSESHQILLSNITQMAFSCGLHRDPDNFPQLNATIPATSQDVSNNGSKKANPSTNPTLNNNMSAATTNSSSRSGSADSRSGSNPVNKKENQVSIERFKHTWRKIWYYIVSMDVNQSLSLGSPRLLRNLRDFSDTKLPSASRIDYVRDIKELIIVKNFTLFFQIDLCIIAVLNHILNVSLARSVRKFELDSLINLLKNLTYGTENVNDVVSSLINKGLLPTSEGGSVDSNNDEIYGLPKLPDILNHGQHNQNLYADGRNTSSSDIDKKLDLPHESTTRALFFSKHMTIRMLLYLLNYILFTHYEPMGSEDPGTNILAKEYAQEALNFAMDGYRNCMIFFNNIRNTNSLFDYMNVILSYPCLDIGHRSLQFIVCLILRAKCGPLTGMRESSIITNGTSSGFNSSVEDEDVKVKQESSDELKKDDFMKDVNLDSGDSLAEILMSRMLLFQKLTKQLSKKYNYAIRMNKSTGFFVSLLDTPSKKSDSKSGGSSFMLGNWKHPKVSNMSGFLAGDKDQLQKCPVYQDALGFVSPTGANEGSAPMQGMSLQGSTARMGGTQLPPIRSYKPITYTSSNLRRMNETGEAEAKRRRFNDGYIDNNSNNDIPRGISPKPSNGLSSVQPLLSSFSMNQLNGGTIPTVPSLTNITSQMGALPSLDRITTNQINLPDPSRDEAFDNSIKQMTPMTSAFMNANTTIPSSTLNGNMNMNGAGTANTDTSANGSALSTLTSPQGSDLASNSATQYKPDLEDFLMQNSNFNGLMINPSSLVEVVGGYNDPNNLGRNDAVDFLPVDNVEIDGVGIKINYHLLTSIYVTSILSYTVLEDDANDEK
row,Sequence,PBM E-score
1,GACAGTGC,0.0705
2,CCTTATGA,-0.074
3,CCTTTCAG,-0.151
4,GGAGCGCA,-0.0936
5,CAAGTTAC,0.0893
6,ATCATCTG,-0.0614
7,AAGATTTC,0.0896
8,ACCATTTG,-0.0604
9,TCAGACCA,-0.138
10,GAACTAAA,0.094
11,AGCTTGAA,-0.163
12,CGTGTCAA,-0.153
13,CAGTCCCG,0.2
14,GCGATTAA,0.201
15,AACTATAT,-0.0114
16,AGTAGCTG,-0.223
17,CGTGCTAG,-0.25
18,GAGGCGTA,0.0847
19,CATTTCCG,0.352
20,TAGTCTCA,-0.134
21,AAGGGTGC,-0.0755
22,ACCCCACA,0.0369
23,CAAAAAGA,-0.0968
24,CGTTAGGC,0.115
25,ACCCAGAG,-0.127

row,Sequence,PBM E-score
1,CTACGACA,-0.168
2,CCCGCCAG,0.0174
3,CTCGGAGC,0.322
4,AACCTACT,0.0423
5,AGCTCCAA,-0.276
6,CCTGGCAA,-0.156
7,GGCCTCGA,-0.193
8,ATTACCGC,0.274
9,GTCACTAA,-0.0788
10,AGGCGCGA,-0.0197
11,ATCAACCC,0.108
12,GCTTCCCC,0.0148
13,TCAAGGGA,-0.0693
14,GGAGATCC,0.138
15,AATGTCTA,-0.279
16,TTGCAAAA,-0.00902
17,CACCGACC,0.192
18,CAAGCAAG,-0.13
19,AATGTTAA,-0.109
20,AGACCGCA,0.132
21,ACTGCGAT,-0.0197
22,CATTTGGA,0.0115
23,AGAGTTCA,-0.273
24,AGGGCTGG,-0.101
25,AACATATA,0.0491

row,Sequence,PBM E-score
1,CTAAGTTC,-0.154
2,GACCCGTC,0.0739
3,CGGGGGGA,0.189
4,ATAATGGA,0.00101
5,ACACAACC,-0.175
6,GTCAGAAA,-0.387
7,CATGATTC,-0.133
8,GGCAAGTA,-0.0484
9,AATAAAAC,0.0481
10,CGTGCAGC,0.0302
11,GGGGGCCA,0.0793
12,ATTACTAA,-0.0442
13,ACCCATTC,-0.00249
14,ATACTATG,0.00605
15,ACATGCTG,-0.314
16,GTATTCCA,-0.101
17,CGAAGTGC,0.0814
18,CCTAGGCG,-0.302
19,TTACTAAA,-0.0968
20,AATTCACA,-0.0888
21,CAACGTTA,-0.127
22,GACGGGGC,0.0768
23,CTACACAC,-0.193
24,AATAAGCG,-0.0603
25,CCCGTAGC,0.0211

row,Sequence,PBM E-score
1,GCAATGCC,-0.037
2,CCACGTAA,-0.139
3,ACCGGATC,0.296
4,ATATTCAA,-0.0463
5,GGACAAGA,0.1
6,CCTAAGAA,-0.175
7,GTCCCCCA,-0.334
8,CCACTCCG,0.271
9,GTATTGGA,-0.137
10,GATTGAGA,0.015
11,AAGGTTGG,-0.0733
12,CTTAGTCA,-0.181
13,AAGCTACG,-0.153
14,AACGATAC,-0.2
15,GCATCGCA,0.0122
16,AATTAGAT,-0.088
17,GCCGAAAC,0.38
18,GATAGTCC,0.0635
19,TAATAACA,-0.125
20,GCCATGTA,-0.109
21,ACGATCCA,-0.111
22,AGACAAAG,-0.202
23,CAGTAATC,-0.223
24,AACTTTAT,0.00581
25,ATTTTACG,0.196

row,Sequence,PBM E-score
1,CGAATGAG,0.166
2,ACTGACAT,-0.245
3,CCTCTAAC,0.021
4,GGCTAAAA,0.0064
5,AGACGAGA,-0.117
6,ATAGATCC,0.234
7,GCTCCCCA,-0.331
8,CTTGGGCA,-0.00168
9,ACCCTGCA,-0.132
10,CAACATGG,-0.234
11,ATGGCACG,-0.00105
12,ATCGGCGA,0.357
13,AACGATTA,-0.108
14,ATACGTAT,0.00473
15,ATAGATTC,-0.118
16,GGGACGTA,-0.0496
17,AAAAGTGT,-0.183
18,AATTACCA,0.0497
19,CGCTTACA,-0.0766
20,GCCCATAA,0.0134
21,GAGACTGA,-0.114
22,CTAACCTA,0.0363
23,GAATCGAC,0.212
24,CTGTAGCC,-0.136
25,AAGCTTCC,-0.137

row,Sequence,PBM E-score
1,GGGCAGGA,0.00446
2,ATTATGTC,-0.176
3,GCTCACCA,-0.211
4,TGTAGCAA,0.0192
5,TAGTTTAA,-0.0984
6,CATGCATG,-0.254
7,AGTGGCCA,-0.187
8,AACTCATT,0.123
9,CTAAGTAG,-0.172
10,AGTACCGG,0.297
11,AGAATACC,0.0161
12,GACCGGGC,0.331
13,CGAGACTC,0.00816
14,GAGGTCGC,0.0338
15,GCGTAGCA,0.0628
16,TAACCCTA,-0.263
17,ACCGCCGT,0.207
18,GATCTGCC,0.03
19,AAAGAATC,-0.143
20,CCGTTCCC,0.0948
21,ACAGCAAT,-0.0448
22,GAGCAGCA,-0.156
23,ATACGATC,-0.0273
24,AGAGCTAG,-0.299
25,GTAGTCAC,-0.113

row,Sequence,PBM E-score
1,CTAGAGGA,-0.241
2,ACTTCGAT,-0.0126
3,CGCTACTC,0.0937
4,AAGGGGTG,-0.244
5,GCCTGCAA,-0.181
6,AGTGTAGC,-0.11
7,AATGTGCA,-0.183
8,TTGCGAAA,0.19
9,AAGTTTCC,0.0886
10,AAGCAAGC,-0.171
11,AGTGAGCG,-0.133
12,GTAAATAC,0.0889
13,GGAGTGCA,0.0897
14,GAAAAGTA,-0.0758
15,AGCATGGG,-0.172
16,GAATGAGA,0.0628
17,CGATGTAG,-0.0466
18,CTTTCTTC,-0.0103
19,AACAAATT,-0.133
20,CTAACGGA,0.38
21,GGAACATA,0.0267
22,AGAAATAC,0.0591
